# In publication PMC4336329 (PLoS ONE, 2015):
# About 14,000 (4.5%) of roughly 310,000 compounds showed an effect of 50% or more. The effect is printed as a negative number. This is one part of the list.
# Biological target: human ether-à-go-go-related gene (hERG) potassium channel (human, UniProt Q12809)
# Assay: primary screen, population patch clamp on CHO cells stably expressing hERG
# 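Also: peak tail current of the secondary pulse compared with the same well before compound.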
# human ether-à-go-go-related gene (hERG) potassium channel, sequence (Q12809 whole entry, looked up): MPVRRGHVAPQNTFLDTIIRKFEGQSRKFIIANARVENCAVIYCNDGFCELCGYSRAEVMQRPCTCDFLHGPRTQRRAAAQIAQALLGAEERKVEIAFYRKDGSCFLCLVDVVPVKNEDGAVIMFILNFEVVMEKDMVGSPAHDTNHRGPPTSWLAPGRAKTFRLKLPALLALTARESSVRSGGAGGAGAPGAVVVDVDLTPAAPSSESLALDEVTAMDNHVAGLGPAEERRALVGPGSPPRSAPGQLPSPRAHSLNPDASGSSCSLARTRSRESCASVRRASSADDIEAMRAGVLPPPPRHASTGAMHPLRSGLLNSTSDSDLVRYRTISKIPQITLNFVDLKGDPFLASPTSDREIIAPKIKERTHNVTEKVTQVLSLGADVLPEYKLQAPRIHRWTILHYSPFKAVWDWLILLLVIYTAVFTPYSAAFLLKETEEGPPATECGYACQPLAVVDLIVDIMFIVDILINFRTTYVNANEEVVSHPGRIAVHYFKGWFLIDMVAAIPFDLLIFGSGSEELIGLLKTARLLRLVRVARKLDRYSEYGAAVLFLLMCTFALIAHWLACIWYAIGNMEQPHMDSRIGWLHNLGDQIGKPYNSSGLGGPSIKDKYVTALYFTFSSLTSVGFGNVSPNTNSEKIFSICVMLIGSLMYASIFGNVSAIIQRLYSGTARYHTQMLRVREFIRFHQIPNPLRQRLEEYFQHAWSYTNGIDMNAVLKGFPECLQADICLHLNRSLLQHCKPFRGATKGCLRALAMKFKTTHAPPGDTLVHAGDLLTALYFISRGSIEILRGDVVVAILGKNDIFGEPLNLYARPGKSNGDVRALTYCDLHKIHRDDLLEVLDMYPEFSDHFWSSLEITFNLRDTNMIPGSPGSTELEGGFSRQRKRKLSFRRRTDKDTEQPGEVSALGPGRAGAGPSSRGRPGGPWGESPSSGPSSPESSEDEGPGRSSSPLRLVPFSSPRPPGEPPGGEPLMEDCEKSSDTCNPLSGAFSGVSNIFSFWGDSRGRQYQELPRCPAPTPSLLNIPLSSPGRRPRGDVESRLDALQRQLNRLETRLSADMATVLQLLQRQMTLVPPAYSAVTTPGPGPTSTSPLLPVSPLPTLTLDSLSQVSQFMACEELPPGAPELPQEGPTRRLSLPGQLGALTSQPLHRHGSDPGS
row,SMILES,"hERG current change (%, negative = inhibition) at 10uM"
1,COc1ccc(CNC(=O)C(C)OC(=O)c2cccs2)cc1 (stereo not shown),1.28%
2,CCNC(=O)N1CCN(C(=O)NCC)CC1,15.7%
3,O=C(CSc1nc(-c2ccc(F)cc2)cc(C(F)(F)F)n1)NCc1cccs1,19.8%
4,CNC(=O)NC(=O)CSc1nnc(-c2ccco2)n1-c1ccccc1,6.91%
5,COc1ccc(C(=O)CSc2cc(C)[nH]c(=O)n2)cc1,20.4%
6,Cc1ccccc1Nc1scc(-c2ccc(Br)cc2)[n+]1-c1ccccc1C.[Br-],9.01%
7,COc1ccc(/C=C2/C(=N)N3N=C(CC(=O)N4CCCC4)SC3=NC2=O)cc1,4.9%
8,CN=C(NC)SC1CC(=O)N(c2ccccc2)C1=O (stereo not shown),3.13%
9,[O-][Cl+3]([O-])([O-])[O-].c1ccc(-c2[nH]c[n+](CC3CO3)c2-c2ccccc2)cc1 (stereo not shown),10.6%
10,CC(=O)NC12CC3CC(CC(CC(=O)O)(C3)C1)C2,-2.25%
11,CCOc1ccc(OCC)c(S(=O)(=O)NCc2ccccn2)c1,-1.02%
12,CCOC(=O)N(C)c1ccc(C(O)(C(F)(F)F)C(F)(F)F)cc1,23.3%
13,Cc1cc(Cl)ccc1C(=O)C1CCCN(C(=O)c2ccoc2)C1 (stereo not shown),-3.62%
14,O=C(Cn1nc([N+](=O)[O-])nc1Br)NC1CCCCC1,18.2%
15,O=C(Nc1nccs1)c1ccc([N+](=O)[O-])cc1Cl,4.39%
16,CCOP(=O)(OCC)C(NC(=O)c1ccc(C)cc1)=C(Cl)Cl,2.23%
17,CC1CCC2(CC1)NC(=O)N(CC(=O)Nc1cccnc1Cl)C2=O (stereo not shown),5.97%
18,Cc1cc(OC(=O)c2ccc(S(=O)(=O)N(C)C)cc2)c([N+](=O)[O-])c(=O)[nH]1,10.6%
19,CCCCn1c(N)c(N(CC)C(=O)c2cccc(OC)c2)c(=O)[nH]c1=O,1.65%
20,Cc1ccc(OCC(=O)OCC(=O)c2ccccc2)cc1C,12.9%
21,Cc1ccc(S(=O)(=O)CCC(=O)OCn2nnc3ccccc3c2=O)cc1,4.9%
22,Cn1c(=O)n(C)c2cc(NS(=O)(=O)c3ccc(Cl)s3)ccc21,-1.37%
23,CCC(C)(C)C1CCC2(CC1)NC(=O)N(CC(=O)NCCc1ccc(OC)c(OC)c1)C2=O (stereo not shown),-19%
24,O=C(Nc1nccs1)c1ccc(Cl)cc1[N+](=O)[O-],-9.1%
25,CC1CCN(S(=O)(=O)c2nnc(NC(=O)c3cccc(Cl)c3)s2)CC1,7.01%
